Calls of active or inactive are those of the source. No stated cut-off is given here; in the data, active = IC50 of 10 µM or less and inactive = more.
Target: T1, Nuclear receptor subfamily 0 group B member 1 (Homo sapiens, UniProt P51843)
T1 sequence (P51843 whole entry): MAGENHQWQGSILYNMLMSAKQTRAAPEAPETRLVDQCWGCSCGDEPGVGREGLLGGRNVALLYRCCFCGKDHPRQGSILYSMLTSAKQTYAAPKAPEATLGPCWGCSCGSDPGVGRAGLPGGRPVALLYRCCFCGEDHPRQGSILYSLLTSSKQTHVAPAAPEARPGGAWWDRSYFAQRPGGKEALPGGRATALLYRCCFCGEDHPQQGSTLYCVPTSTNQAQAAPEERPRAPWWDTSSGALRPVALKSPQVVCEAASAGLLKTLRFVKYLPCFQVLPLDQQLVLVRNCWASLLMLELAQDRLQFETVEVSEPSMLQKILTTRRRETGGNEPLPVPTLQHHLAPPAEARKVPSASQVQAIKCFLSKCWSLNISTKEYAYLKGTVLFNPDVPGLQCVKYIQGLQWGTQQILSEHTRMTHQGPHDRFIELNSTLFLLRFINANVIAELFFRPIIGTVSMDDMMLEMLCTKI
Format: functional, cell-based
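Further: HEK293T cells transfected with SF-1 and DAX-1 plus StAR promoter luciferase reporter.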

CCOC(=O)NC1CCc2cc(OC)c(OC)c(OC)c2-c2ccc(OC)c(=O)cc21 (stereo unspecified)
IC50: active: > 30.9 nM
